According to the supplement of paper PMC9446081:
Screen size: about 39,000 compounds; about 220 (0.56%) showed activity. Some of the results follow.

The molecules below were run on Escherichia coli K-12 BW25113 (assay: relative growth (OD600 normalised to plate interquartile mean) (fraction); higher = less growth inhibition, active = 0.2 or less). Details: 50 µM; LB; incubation time: overnight (16-24 h).
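Further: static incubation at 37 °C against the wild-type strain, values averaged over two biological replicates.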

Compound	relative growth
C[C@@H]1CCCCO[C@@H](CN(C)Cc2ccccc2)[C@H](C)CN([C@H](C)CO)C(=O)c2cc(NC(=O)c3ccccc3)ccc2O1	inactive: 0.983
CCO[C@@H]1OC(C(=O)N2CCN(Cc3ccccc3)CC2)=C[C@H](C)[C@H]1CCCOC(=O)NCCCCCC(=O)NO	inactive: 1.02
COc1ccc(NC(=O)Nc2ccc3c(c2)C(=O)N([C@@H](C)CO)C[C@@H](C)[C@H](CN(C)C(=O)CCC(F)(F)F)OCCCC[C@@H](C)O3)cc1	inactive: 1.02
CCCN(C)C[C@H]1OCCCC[C@@H](C)Oc2ccc(NC(=O)c3ccccc3)cc2C(=O)N([C@H](C)CO)C[C@@H]1C	inactive: 1
C[C@H]1CN([C@@H](C)CO)C(=O)c2cccc(NC(=O)C3CCCCC3)c2O[C@H]1CN(C)Cc1ccc(Cl)c(Cl)c1	inactive: 0.992
C[C@H]1CN([C@@H](C)CO)C(=O)c2cccc(NC(=O)C3CC3)c2O[C@H]1CN(C)Cc1ccc(-c2ccccc2)cc1	inactive: 1.01
COCC#Cc1ccc([C@H]2[C@@H](CO)N3C(=O)CN(C(=O)C4CCOCC4)C[C@H]23)cc1	inactive: 0.992
C[C@@H]1CN([C@H](C)CO)C(=O)c2cc(C#CC3CCCCC3)cnc2O[C@H]1CN(C)C(=O)c1ccncc1	inactive: 0.982
CCOC(=O)c1c(CN2CCN(c3ccccc3)CC2)n(-c2ccccc2)c2cc(Br)c(OC)cc12	inactive: 1.03
C=C1CCOC(=O)[C@@H](NC(C)=O)CCCN(O)C(=O)/C=C(\C)CCOC(=O)[C@H](NC(C)=O)CCCN(O)C(=O)/C=C(\C)CCOC(=O)[C@@H](NC(C)=O)CCCN(O)C(=O)C1	inactive: 0.817
C[C@H](CO)N1C[C@H](C)[C@H](CN(C)C(=O)Nc2ccc3c(c2)OCO3)Oc2c(NC(=O)Nc3cccc4ccccc34)cccc2C1=O	inactive: 0.971
Cc1ccc(S(=O)(=O)N(C)C[C@@H]2Oc3c(NS(=O)(=O)c4cn(C)cn4)cccc3C(=O)N([C@H](C)CO)C[C@H]2C)cc1	inactive: 1.01
C[C@@H]1CN([C@H](C)CO)C(=O)c2cc(NS(=O)(=O)c3ccc(Cl)cc3)ccc2O[C@@H](C)CCCCO[C@@H]1CN(C)C(=O)Cc1ccccc1	inactive: 1.02
Cc1ccc(S(=O)(=O)N[C@@H]2C=C[C@@H](CC(=O)NCCN3CCCCC3)O[C@H]2CO)cc1	inactive: 1
C[C@@H]1CN([C@H](C)CO)C(=O)c2cc(NC(=O)Nc3ccc4c(c3)OCO4)ccc2O[C@@H](C)CCCCO[C@@H]1CN(C)S(=O)(=O)c1ccc(Cl)cc1	inactive: 1.01
Cc1ccnc(=O)[nH]1	inactive: 0.947
COc1cccc(S(=O)(=O)N(C)C[C@H]2Oc3cc(C#CCN(C)C)ccc3S(=O)(=O)N([C@H](C)CO)C[C@@H]2C)c1	inactive: 0.968
CC(C)NC(=O)N(C)C[C@H]1Oc2c(NC(=O)Nc3ccc4c(c3)OCO4)cccc2C(=O)N([C@@H](C)CO)C[C@H]1C	inactive: 0.993
C[C@@H]1CCCCO[C@H](CN(C)Cc2ccc(C(F)(F)F)cc2)[C@@H](C)CN([C@H](C)CO)C(=O)c2cc(NC(=O)NC3CCCCC3)ccc2O1	inactive: 1.02
COc1ccc(NC(=O)Nc2ccc3c(c2)[C@H]2C[C@H](CC(=O)NCC(F)(F)F)O[C@@H](CO)[C@H]2O3)cc1	inactive: 1.04

Compound	relative growth
O=C(N[C@H]1CC[C@H](CC(=O)N2CCOCC2)O[C@@H]1CO)c1ccc2c(c1)OCO2	inactive: 0.982
COc1ccc2c3c(n(c2c1)C)[C@H](CO)N(CC1CCOCC1)C[C@]13CN(C1)C(=O)Cc1cccnc1	inactive: 1.02
Cc1ccc(S(=O)(=O)N(C)C[C@@H]2Oc3ccc(NC(=O)Nc4ccc(C(F)(F)F)cc4)cc3CC(=O)N([C@H](C)CO)C[C@@H]2C)cc1	inactive: 1.03
C[C@@H]1CN([C@H](C)CO)C(=O)c2cc(NC(=O)NC3CCCCC3)ccc2O[C@@H]1CN(C)C(=O)Nc1cccc2ccccc12	inactive: 0.925
C[C@H]1CN([C@@H](C)CO)C(=O)c2cc(NS(C)(=O)=O)ccc2O[C@@H]1CN(C)Cc1ccc(C(=O)Nc2ccccc2N)cc1	inactive: 1
COc1ccc(NC(=O)Nc2ccc3c(c2)C(=O)N([C@H](C)CO)C[C@H](C)[C@@H](CN(C)CC2CC2)OCCCC[C@@H](C)O3)cc1	inactive: 0.978
C[C@@H]1CN([C@@H](C)CO)C(=O)c2cc(NC(=O)Nc3ccccc3)ccc2O[C@@H](C)C/C=C\CO[C@H]1CN(C)S(=O)(=O)c1ccc(F)cc1	inactive: 1.02
Cc1ccc(S(=O)(=O)Nc2ccc3c(c2)C(=O)N([C@@H](C)CO)C[C@H](C)[C@H](CN(C)S(=O)(=O)c2ccccc2)O3)cc1	inactive: 1.04
Cc1ccc(C)c(S(=O)(=O)N2[C@@H]3CC[C@@H](C3)[C@H]2c2nc3cccc(OCc4ccc(F)cc4)c3[nH]2)c1	inactive: 1.01
COc1ccc(S(=O)(=O)N(C)C[C@H]2Oc3c(NS(=O)(=O)c4cn(C)cn4)cccc3C(=O)N([C@@H](C)CO)C[C@@H]2C)cc1	inactive: 0.997
COCC(=O)N1C[C@H](C)[C@@H](OC)CN(C)C(=O)c2cc(NC(=O)c3ccc(F)cc3)ccc2OC[C@@H]1C	inactive: 1
COCCNC(=O)c1cn(C)nc1OC	inactive: 1.01
C[C@H](CO)N1C[C@H](C)[C@H](CN(C)S(=O)(=O)c2ccc(Cl)cc2)Oc2ccc(NC(=O)C3CC3)cc2CC1=O	inactive: 1
COc1ccccc1-c1ccc2c(c1)O[C@H](CN(C)C(=O)c1cccnc1)[C@@H](C)CN([C@H](C)CO)S2(=O)=O	inactive: 0.991
C[C@@H]1CCCCO[C@H](CN(C)Cc2ccncc2)[C@@H](C)CN([C@@H](C)CO)C(=O)c2cc(NC(=O)Nc3ccccc3)ccc2O1	inactive: 1.02
C[C@H](CO)N1C[C@H](C)[C@H](CN(C)S(=O)(=O)c2ccc(F)cc2)Oc2cc(C3=CCCC3)ccc2S1(=O)=O	inactive: 1.02
C[C@H](CO)N1C[C@H](C)[C@@H](CN(C)C(=O)[C@H](C)c2ccccc2)OCc2ccccc2-c2c(n(C)c3ccccc23)C1=O	inactive: 1.02
C[C@H]1CN([C@@H](C)CO)C(=O)c2cc(NC(=O)Nc3cccc4ccccc34)ccc2O[C@H]1CN(C)C(=O)Nc1ccc(F)cc1	inactive: 0.931
C[C@H](CO)N1C[C@H](C)[C@@H](CN(C)Cc2ccc(Oc3ccccc3)cc2)Oc2ccc(NS(=O)(=O)c3ccc(Cl)cc3)cc2C1=O	inactive: 0.976
COc1cccc(S(=O)(=O)N(C)C[C@H]2Oc3ncc(-c4cccc(C(=O)N(C)C)c4)cc3C(=O)N([C@@H](C)CO)C[C@H]2C)c1	inactive: 0.979

Compound	relative growth
C[N+](C)(C)CCCC[C@@H]1NC(=O)[C@H]2C[C@@H](C(=O)NCCCCCCN)[C@@H](c3ccc(O)cc3)N2C1=O	inactive: 0.947
Cc1nc(-c2ccccc2)oc1CN	inactive: 0.998
O=C(N[C@@H](c1ccccc1)c1ccc2ccccc2n1)C1CCN(Cc2cccc(C(F)(F)F)c2)CC1	inactive: 1.02
COc1ccc(NC(=O)Nc2ccc3c(c2)C(=O)N([C@@H](C)CO)C[C@H](C)[C@H](CN(C)C(=O)CCC(F)(F)F)OCCCC[C@@H](C)O3)cc1	inactive: 0.991
C[C@@H]1CN([C@@H](C)CO)C(=O)c2cc(NS(C)(=O)=O)ccc2O[C@H]1CN(C)S(=O)(=O)c1ccc(Cl)cc1	inactive: 0.992
C[C@H](CO)N1C[C@H](C)[C@H](CN(C)C(=O)Nc2ccc3c(c2)OCO3)Oc2ccc(N(C)C)cc2CC1=O	inactive: 0.989
NC(=S)N[C@H]1C[C@@H]2C=C[C@H]1C2	inactive: 1
C[C@H]1CN([C@@H](C)CO)C(=O)c2cccc(NC(=O)c3cnccn3)c2O[C@@H]1CN(C)S(C)(=O)=O	inactive: 0.932
Cc1ccc(S(=O)(=O)Nc2ccc3c(c2)C(=O)N([C@H](C)CO)C[C@H](C)[C@@H](CN(C)C(=O)Nc2ccc(F)cc2)OCCCC[C@@H](C)O3)cc1	inactive: 1.02
CC12C=CC(=O)C=C1CCC1C3CC(O)C(O)(C(=O)CO)C3(C)CC(O)C12F (stereo not drawn)	inactive: 1.04
C[C@@H]1CCCCO[C@H](CN(C)CC2CCCCC2)[C@H](C)CN([C@@H](C)CO)C(=O)c2cc(NC(=O)Nc3ccc4c(c3)OCO4)ccc2O1	inactive: 0.961
COc1ccc(C(=O)c2ccccc2O)c(O)c1	inactive: 0.932
C[C@H](CO)N1C[C@H](C)[C@@H](CN(C)Cc2ccc(-c3ccccc3)cc2)Oc2c(NC(=O)Nc3ccc(C(F)(F)F)cc3)cccc2C1=O	inactive: 0.986
C[C@@H]1CN([C@@H](C)CO)C(=O)c2cc(NS(C)(=O)=O)ccc2O[C@@H](C)CCCCO[C@@H]1CN(C)S(=O)(=O)c1ccc(F)cc1	inactive: 1.01
C[C@H](CO)N1C[C@H](C)[C@@H](CN(C)Cc2ccc(Cl)c(Cl)c2)Oc2c(NC(=O)c3nc4ccccc4s3)cccc2C1=O	inactive: 1.03
COCC(=O)N1C[C@@H]2OCCN(CCN3CCCC3)[C@H]2C1	inactive: 0.982
C[C@@H]1CCCCO[C@@H](CN(C)Cc2ccncc2)[C@H](C)CN([C@H](C)CO)C(=O)c2cc(NC(=O)c3ccccc3)ccc2O1	inactive: 1.01
COc1ccc(C#Cc2ccc3c(c2)[C@@]2(C(=O)N3C(=O)N[C@@H](C)c3ccccc3)[C@H](c3ccc(OCCO)cc3)N3[C@H](c4ccccc4)[C@H](c4ccccc4)OC(=O)[C@H]3[C@@H]2C(=O)O)cc1	inactive: 1.01
